Measurements taken from patent US20160046690A1 (ACCELERON PHARMA, published 2016).

Key:
Test in all cases: surface plasmon resonance
BMP10 = target: T1, BMP10 (Natural ligand is a disulfide-linked homodimer; one subunit is given.)
T1 chain: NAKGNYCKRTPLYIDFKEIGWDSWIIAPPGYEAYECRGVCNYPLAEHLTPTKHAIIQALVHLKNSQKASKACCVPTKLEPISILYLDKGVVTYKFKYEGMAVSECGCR

GDF8 = target: T2, GDF8 (Natural ligand is a disulfide-linked homodimer; one subunit is given.)
T2 construct: also called myostatin

Activin A = target: T3, Activin A
T3 sequence (P08476 311-426, species assumed, looked up): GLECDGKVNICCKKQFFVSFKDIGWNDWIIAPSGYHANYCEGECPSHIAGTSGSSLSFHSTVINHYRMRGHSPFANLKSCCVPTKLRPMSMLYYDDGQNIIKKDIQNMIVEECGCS

Activin B = target: T4, Activin B (Activin B is a disulfide-linked homodimer of the beta-B subunit; one subunit is given.)
T4 chain: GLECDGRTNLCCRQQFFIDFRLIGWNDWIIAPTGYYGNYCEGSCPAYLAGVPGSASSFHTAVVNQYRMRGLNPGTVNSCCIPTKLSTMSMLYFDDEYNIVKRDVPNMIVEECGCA

BMP9 = target: T5, BMP9 (Natural ligand is a disulfide-linked homodimer; one subunit is given.)
T5 chain: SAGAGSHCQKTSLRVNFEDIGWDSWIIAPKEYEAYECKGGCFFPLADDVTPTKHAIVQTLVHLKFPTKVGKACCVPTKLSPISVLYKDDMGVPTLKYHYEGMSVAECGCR

BMP6 = target: T6, BMP6 (Natural ligand is a disulfide-linked homodimer; one subunit is given.)
T6 chain: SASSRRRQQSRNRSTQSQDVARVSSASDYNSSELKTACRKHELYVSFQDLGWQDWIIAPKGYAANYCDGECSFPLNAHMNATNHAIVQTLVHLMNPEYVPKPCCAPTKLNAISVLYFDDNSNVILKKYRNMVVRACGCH

GDF11 = target: T7, GDF11 (Natural ligand is a disulfide-linked homodimer; one subunit is given.)
T7 construct: also called BMP11
T7 chain: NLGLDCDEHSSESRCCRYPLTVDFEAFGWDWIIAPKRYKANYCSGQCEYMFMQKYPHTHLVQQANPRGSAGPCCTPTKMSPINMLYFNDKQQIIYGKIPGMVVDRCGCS

GDF8, sequence (chain, as listed by the source limits assumed): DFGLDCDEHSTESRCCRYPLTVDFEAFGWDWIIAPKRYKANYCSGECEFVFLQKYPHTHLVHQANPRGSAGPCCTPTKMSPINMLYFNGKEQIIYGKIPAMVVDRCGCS

Kd (BMP10): 0.087 nM | koff (BMP10): 0.00145 s⁻¹ | kon (BMP10): 1.67e+07 M⁻¹ s⁻¹ | Kd (GDF8): 0.2 nM | koff (GDF8): 0.000242 s⁻¹ | kon (GDF8): 1.18e+06 M⁻¹ s⁻¹ | Kd (Activin A): 23 nM | koff (Activin A): 0.123 s⁻¹ | kon (Activin A): 5.35e+06 M⁻¹ s⁻¹ | Kd (Activin B): 0.62 nM | koff (Activin B): 0.00219 s⁻¹ | kon (Activin B): 3.52e+06 M⁻¹ s⁻¹ | Kd (BMP9): 2.7 nM | koff (BMP9): 0.0137 s⁻¹ | kon (BMP9): 5.04e+06 M⁻¹ s⁻¹ | Kd (BMP6): 0.09 nM | koff (BMP6): 0.000546 s⁻¹ | kon (BMP6): 6.05e+06 M⁻¹ s⁻¹ | Kd (GDF11): 0.074 nM | koff (GDF11): 0.000256 s⁻¹ | kon (GDF11): 3.46e+06 M⁻¹ s⁻¹
B1: ActRIIB(L79D 25-131)-Fc (Fc fusion)
chain: ETRECIYYNANWELERTNQSGLERCEGEQDKRLHCYASWRNSSGTIELVKKGCWDDDFNCYDRQECVATEENPQVYFCCCEGNFCNERFTHLPEAGGPEVTYEPPPTG[human IgG1 Fc and a few adjoining residues omitted here]
notes: also called double-truncated variant ActRIIB(L79D 25-131)-Fc
